Measurements taken from PubChem BioAssay AID686978 (National Center for Advancing Translational Sciences (NCATS), 2013).
Hit rate of the full screen: of about 420,000 compounds, about 64,000 (15%) were called active. Inconclusive results, whose numbers are uncertain, are shown with a selection of clear calls. Calls come from the whole dose curve; as a rule, active = well fitted inhibition curve with a large enough effect; inconclusive = small, poorly fitted or top-dose-only effect; inactive = flat fitted curve, though single readings scatter. No potency is given beside an inconclusive call; the fits are too rough.

Assay: qHTS for Inhibitors of human tyrosyl-DNA phosphodiesterase 1 (TDP1): qHTS in cells in absence of CPT; note: nearly all actives have a fitted effect of over 55% in size
Conditions: DT40 Tdp1-/- hTDP1 cells, no CPT, ATP luminescence, 48 h; activity change, negative = growth inhibition: at 46.2 µM (top of the series) unless noted
In short: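 Chicken DT40 Tdp1-/- cells complemented with human TDP1, screened without camptothecin (DMSO vehicle only), 400 cells/well. Compounds pin-transferred, cells incubated at 37 °C for at least 48 hr. Growth read as ATP-dependent luminescence (CellTiter-Glo, 30 min at RT).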
% is set by controls: 0 for no effect and ±100 for the full control effect; potency is the fitted concentration of half-maximal effect; tags give direction and shape of the fitted curve.

| Compound | Potency | activity change, negative = growth inhibition |
| --- | --- | --- |
| CCOC(=O)C(C)Sc1nnc2ccc3ccccc3n12 (stereo unspecified) | inconclusive [inhibitor, single point] |  |
| CN=C1SC(CC(=O)Nc2sc3c(c2C#N)CCCC3)C(=O)N1C (stereo unspecified) | inconclusive [inhibitor, single point] |  |
| CCOC(=O)CSc1nc(-c2ccncc2)ccc1C#N | inconclusive [inhibitor, single point] |  |
| CC(=NNS(=O)(=O)c1cccc([N+](=O)[O-])c1)c1ccc(-n2ccnc2)cc1 | inconclusive [inhibitor, partial curve] |  |
| CC(C)(C)c1ccc(/C=N/NC(=O)c2ccccn2)cc1 | inconclusive [inhibitor, single point] |  |
| CC(C)Oc1cccc(C(=O)C2CCCN(Cc3cccn3-c3cccnc3)C2)c1 (stereo unspecified) | active: 13 µM |  |
| Cc1ccc(S(=O)(=O)Nc2cccc(-c3ccc(N4CCCCC4)nn3)c2)s1 | inconclusive [inhibitor, single point] |  |
| CC1CCN(C(=O)Cn2cc(C(=O)C3CC3)c3ccccc32)CC1 | inactive |  |
| CCN=C1S/C(=C\c2cn(CC)c3ccccc23)C(=O)N1CC | active: 10.3 µM |  |
| Cc1ccc(Nc2nnc(SC(C)C(=O)Nc3c(C)n(C)n(-c4ccccc4)c3=O)s2)cc1 (stereo unspecified) | inconclusive [inhibitor, single point] |  |
| COc1ccc(C2(CNC(=O)C(=O)Nc3cccc(C(F)(F)F)c3)CCCC2)cc1OC | active: 18.4 µM |  |
| OCCN1CCN(C(=S)c2ccc(Cl)c(Cl)c2)CC1 | active: 18.4 µM |  |
| C(=C\c1ccccc1)/CSc1nnc(-c2cccnc2)n1Cc1ccco1 | inactive |  |
| CCNc1nc(NC(C)C)nc(N(C#N)CCOc2ccccc2)n1 | active: 23.1 µM |  |
| COc1cc(OC)c(NC(=O)CCn2cnc3onc(-c4ccc(F)cc4)c3c2=O)cc1Cl | active: 2.06 µM |  |
| CC1Sc2ccc(S(=O)(=O)N3CCN(c4cccc(Cl)c4)CC3)cc2NC1=O (stereo unspecified) | inconclusive [inhibitor, single point] |  |
| CCN(CC)C(=O)C1=C(C)N(Cc2ccc(C(C)(C)C)cc2)C(=O)C(CC(=O)NCC2CCCCC2)C1 (stereo unspecified) | active: 18.4 µM |  |
| COc1cccc(CC(=O)NC2CCCN(Cc3ccc(Cl)cc3)C2)c1 (stereo unspecified) | inconclusive [inhibitor, single point] |  |
| CCOc1ccc(C(CC(=O)O)NC(=O)COc2ccccc2)cc1 (stereo unspecified) | inactive |  |
| Cn1cc(S(=O)(=O)NCC2CCCO2)c(=O)n(C)c1=O (stereo unspecified) | inactive |  |
| CCOc1ccc(NC2c3ccccc3C(=O)N2Cc2ccco2)cc1 (stereo unspecified) | active: 11.6 µM |  |
| O=C(Nc1ccc(F)cc1)c1oc2ccccc2c1NC(=O)C1CCCC1 | active: 18.4 µM |  |
| C[C@H]1CN(Cc2ccccc2)C(=O)[C@@H]1CC(=O)Nc1ccccc1 | inactive |  |
| CC(C)C[C@H]1CNC(=S)N1CC1CCN(CCC23CC4CC(CC(C4)C2)C3)CC1 | active: 16.4 µM |  |

| Compound | Potency | activity change, negative = growth inhibition |
| --- | --- | --- |
| COc1ccccc1CCNc1ncnc2sc(C(=O)N3CCCCC3)c(C)c12 | inconclusive [inhibitor, single point] |  |
| Cc1onc(-c2ccccc2)c1C(=O)N/N=C(\N)COc1ccc(Cl)cc1 | inconclusive [inhibitor, single point] |  |
| COc1ccc(CCCc2nnc(SCC(=O)Nc3nccs3)n2C)cc1C |  | inconclusive: -31.6% [inhibitor] |
| COc1ccc(NC(=O)CN(C)C(=O)c2cn(-c3ccccc3)nc2-c2ccc(OC)cc2)cc1 | inconclusive [inhibitor, single point] |  |
| CC(C)(C)NC(=O)c1ccc(NC(=O)C2COc3ccccc3O2)cc1 (stereo unspecified) | inconclusive [inhibitor, single point] |  |
| O=C(Nc1cnn(Cc2ccc(F)cc2)c1)c1noc2c1CCCC2 | inconclusive [inhibitor, single point] |  |
| COc1ccc(N2CCN(C(c3cccs3)C(C)NC(=O)C(=O)N3CCCC3)CC2)cc1 (stereo unspecified) | inconclusive [inhibitor, partial curve] |  |
| COc1ccc(/C=C/C(=O)N(C)CC(=O)Nc2cccc(F)c2)cc1S(=O)(=O)N1CCCCC1 | active: 16.4 µM |  |
| Cc1ccc(C(=O)N[C@H](C(=O)OCc2cc(=O)oc3cc(C)ccc23)C(C)C)cc1 |  | inconclusive: -35.2% [inhibitor] |
| N#Cc1cc2ccccc2nc1SCC(=O)Nc1ccccc1N1CCOCC1 | inconclusive [inhibitor, single point] |  |
| O=[N+]([O-])c1ccccc1-c1ccc(C(=S)N2CCCCC2)o1 |  | inconclusive: -31.5% [inhibitor] |
| CCCn1c(-c2ccc(F)cc2)n[nH]c1=S | inactive |  |
| CC(C)CC(OC(=O)CC1Sc2ccccc2NC1=O)C(=O)NC1CCCC1 (stereo unspecified) | inconclusive [inhibitor, partial curve] |  |
| COc1ccc(C(=O)N2CCC3(CCCN(c4ccccn4)C3)CC2)cc1 | inconclusive [inhibitor, single point] |  |
| NC(=O)c1ccsc1NC(=O)CSc1ccccc1F | inconclusive [inhibitor, partial curve] |  |
| CCCNC(=O)C1(C)CCN(Cc2ccc(Cl)c(Cl)c2)C1 (stereo unspecified) | active: 20.6 µM |  |
| COc1ccc(C(=O)NNC(=O)C2(C)CC2(Br)Br)cc1 (stereo unspecified) | inactive |  |
| CC1Cc2ccccc2N1C(=O)c1ccc2nccnc2c1 (stereo unspecified) | inactive |  |
| Cc1ccc(C)n1-c1sccc1C(=O)O | inactive |  |
| CC1(C)CC2CC(C)(CN2C(=O)c2cc(-c3ccccc3)on2)C1 (stereo unspecified) | inconclusive [inhibitor, single point] |  |
| CC1=NN(C(=O)c2ccccc2F)C(O)(c2ccc(Cl)cc2)C1 (stereo unspecified) | inconclusive [inhibitor, single point] |  |
| COc1ccc(/C=C(\C#N)C(=O)NCc2ccccc2)cc1 | inactive |  |
| Cn1ncn2c(=O)c3c(nc12)-c1ccccc1CC31CCCC1 | inconclusive [inhibitor, single point] |  |
| Cn1cc(S(=O)(=O)N2CCCCC2)cc1C(=O)N1CCN(c2ccc(F)cc2)CC1 | inconclusive [inhibitor, single point] |  |

| Compound | Potency | activity change, negative = growth inhibition |
| --- | --- | --- |
| CN(CC(=O)Nc1ccc(F)cc1)C(=O)c1ccc(-c2ccc(F)cc2)o1 | active: 20.6 µM |  |
| NC(c1csc(Nc2ncccn2)n1)c1ccccc1Cl (stereo unspecified) | active: 20.6 µM |  |
| CCN(C[C@H]1N[C@@](Cc2ccccc2)(C(=O)OC)[C@H]2C(=O)N(Cc3ccccc3)C(=O)[C@@H]12)S(=O)(=O)c1ccc(F)cc1 | inconclusive [inhibitor, partial curve] |  |
| Cc1oc(-c2ccc(C(=O)NCc3ccc(N(C)C)cc3)cc2)nc1COc1ccccc1 | inactive |  |
| CC(NC(=O)CN(C)S(=O)(=O)c1ccc2c(c1)c(=O)n(C)c(=O)n2C)c1ccccc1 (stereo unspecified) | inconclusive [inhibitor, single point] |  |
| COc1ccccc1C(=O)Nc1ccc(C2=NNC(=O)CC2C)cc1 (stereo unspecified) | inconclusive [inhibitor, partial curve] |  |
| CC(C)(C)NC(=O)CSc1nc(-c2ccc(F)cc2)cs1 | inactive |  |
| CN1CCc2c(c3c(n2C)CCN(C)C3c2ccc(F)cc2)C1c1ccc(F)cc1 (stereo unspecified) | inconclusive [inhibitor, single point] |  |
| Cc1sc2nc(CN(Cc3cccs3)C(=O)NC3CCCCC3)[nH]c(=O)c2c1C | inconclusive [inhibitor, single point] |  |
| CCc1ccc(NC(=O)CSc2nccn2C2CCCC2)cc1 | inconclusive [inhibitor, single point] |  |
| CCOC(=O)c1c(S(=O)(=O)N2CCCC(C(=O)N3CCN(c4ccc(F)cc4)CC3)C2)c(C)n(C)c1C (stereo unspecified) | inconclusive [inhibitor, single point] |  |
| COC(=O)c1cc(CNC(=O)c2cccc3ccccc23)cc(NC(=O)c2ccccc2OC)c1 | inconclusive [inhibitor, single point] |  |
| CCCCn1c(C)cc(/C=C(\C#N)C(=O)O)c1C |  | inconclusive: -31.3% [inhibitor] |
| CO[C@H]1C[C@@H]2CC[C@@H](C)[C@@](O)(O2)C(=O)C(=O)N2CCCC[C@H]2C(=O)O[C@H]([C@H](C)C[C@@H]2CC[C@@H](OC(=O)C(C)(CO)CO)[C@H](OC)C2)CC(=O)[C@H](C)/C=C(\C)[C@@H](O)[C@@H](OC)C(=O)[C@H](C)C[C@H](C)/C=C/C=C/C=C/1C | inactive |  |
| Cc1c(C(N)=O)nnn1-c1ccc(Br)cc1 | inactive |  |
| COc1ccc(C(=S)N2CCC(C(N)=O)CC2)cc1Br | inactive |  |
| Cc1ccc(-c2csc3nc[nH]c(=O)c23)c(C)c1 | inconclusive [inhibitor, single point] |  |
| Cc1ccc(C)c(-c2csc(-c3c(N)c(C(=O)c4ccc5c(c4)OCO5)n4ccccc34)n2)c1 | inconclusive [inhibitor, partial curve] |  |
| Cc1cc2nc(-c3ccco3)c(Cc3cccc(F)c3)n2c(C)c1Br | active: 16.4 µM |  |
| O=C(NCC(c1ccco1)N1CCN(c2ccccc2F)CC1)c1cccs1 (stereo unspecified) | inconclusive [inhibitor, single point] |  |
| CCCCCCNC(=O)CCc1nc2cccnc2n1Cc1ccc(OC)cc1 | inconclusive [inhibitor, partial curve, poor fit] |  |
| O=c1cc(CSc2ccccn2)c2ccccc2[nH]1 | inactive |  |
| CC(C)[C@H]1C(=O)Nc2ccccc2N1C(=O)N[C@@H](Cc1ccccc1)C(=O)N[C@@H](Cc1ccccc1)C(=O)O | inactive |  |
